Among all 340,000 compounds or so, about 6,900 (2%) were called active. No stated cut-off is given here; in the data, active means inhibition above about 30%; inactive means below that, where a call was filed. The entries are a selection whose mix differs from that of the whole data set. The source gives no active or inactive call for entries shown without one.
The compounds below were run against D(2) dopamine receptor (Homo sapiens) (UniProt P14416) (assay: HTS Assay for Allosteric Antagonists of the Human D2 Dopamine Receptor: Primary Screen for Antagonists). Settings: HEK293 TREx D2 cells, calcium flux, dopamine EC80; at 10 µM; stronger effect = higher value.
Summary of the method: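 Calcium mobilization kinetics were recorded at 1 s intervals in tetracycline-induced HEK293 T-REx D2 cells, first for 180 s after compound addition and then 180 s after EC80 dopamine.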
Further: 0% is about no effect.

Sequence of UniProt P14416 (P14416 whole entry, looked up): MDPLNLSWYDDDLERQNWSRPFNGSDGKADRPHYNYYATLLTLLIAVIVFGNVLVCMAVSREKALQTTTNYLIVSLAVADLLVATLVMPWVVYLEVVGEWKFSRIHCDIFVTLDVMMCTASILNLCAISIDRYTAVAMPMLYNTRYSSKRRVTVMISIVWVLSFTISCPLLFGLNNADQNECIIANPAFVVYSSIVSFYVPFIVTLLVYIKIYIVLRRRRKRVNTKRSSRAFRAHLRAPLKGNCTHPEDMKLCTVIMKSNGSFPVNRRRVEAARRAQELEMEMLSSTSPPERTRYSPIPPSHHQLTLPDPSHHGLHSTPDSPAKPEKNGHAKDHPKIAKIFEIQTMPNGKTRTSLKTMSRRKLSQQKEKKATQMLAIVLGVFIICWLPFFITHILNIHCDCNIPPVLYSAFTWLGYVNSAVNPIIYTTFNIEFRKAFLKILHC

SMILES	inhibition
CCCCc1ccc(NC(=S)NCCO)cc1	active: 30.9%
CC1CN(Cc2csc(-c3ccc(Cl)cc3)n2)CC(C)O1 (configuration not stated)	active: 36.9%
O=C(NCc1ccccc1Cl)C1CCCN(C(=O)c2cnn(-c3ccccc3)c2-n2cccc2)C1 (configuration not stated)	6.28%
COc1ccc(-n2c(=O)c3c4c(sc3n(Cc3ccccc3Cl)c2=O)CCC4)c(OC)c1	0.109%
O=C(CCN1C(=O)CSc2ccccc21)Nc1ccc(OC(F)(F)F)cc1	active: 51.4%
COc1cccc(CNC(=O)CN(C)S(=O)(=O)c2ccc3[nH]c4c(c3c2)CCCC4)c1	-10.6%
Cc1cccc(OCC(=O)Nc2ccccc2OCc2cc(=O)n3ccccc3n2)c1	10.8%
Cc1cccc(-c2nc3c(c(SCc4ccccc4Cl)n2)Cc2c(CO)cnc(C)c2O3)c1	-15.8%
COc1cc(Cl)c(C)cc1NC(=O)c1cc2c(Cl)nc3ccc(C)cc3c2s1	-15%
COc1cc2c(cc1OC)CN(C(=O)Nc1ccccc1Cl)CC2	active: 34.7%
Cc1ccc(NS(=O)(=O)c2ccc3c(c2)CC(C)N3C(=O)C2CCC2)cc1Cl (configuration not stated)	-6.64%
CCOc1ccccc1NC(=O)c1c(NC(=O)C(C)Oc2ccc(Cl)cc2)sc2c1CCCCC2 (configuration not stated)	-2.84%
CC(C)CC1N=C2c3ccccc3N=C(SCC(=O)NCCc3ccc(Cl)cc3)N2C1=O (configuration not stated)	10.8%
COc1ccc(-c2nc3cc(C)ccn3c2NC(=O)c2ccc(C)c(C)c2)cc1	-9.88%
CC(C)CCn1c(=O)c2sccc2n2c(CCCC(=O)NC(C)C)nnc12	26.7%
CCn1cc(C(=O)N2CCN(c3ccc(F)cc3)CC2)c(=O)c2cc(S(=O)(=O)N(C)C3CCCCC3)ccc21	-4.1%
CCOC(=O)C1=C(CN2CCCCC2)NC(=O)NC1c1cc(C)ccc1C (configuration not stated)	3.22%
COc1ccccc1N1CCN(C(CNC(=O)C(=O)NCc2ccc(C)cc2)c2cccnc2)CC1 (configuration not stated)	19.9%
CC(C)(C)c1ccc(OCCn2cc(C(=O)c3ccco3)c3ccccc32)cc1	-2.61%
CCc1cccc(NC(=O)C2CCCN(S(=O)(=O)c3cccs3)C2)c1 (configuration not stated)	2.97%
Cc1ccc(C2=CC(c3ccccc3F)n3c(nc4ccccc43)N2)cc1C (configuration not stated)	-17.7%
Nc1ccccc1NC1=CC(=O)CC(c2ccco2)C1 (configuration not stated)	active: 30.9%
CN(C)c1ccc(-n2c(CCC(=O)O)ccc2-c2ccccc2)cc1	8.63%
COc1ccc(C2=NC(c3ccncc3)=Nc3ccc(Br)cc3N2)cc1	12.3%
COc1ccc(CC(=O)NCc2ccc3c(c2)CCN3C(=O)c2ccccc2)cc1OC	6.26%
Cc1oc(-c2cccc(Cl)c2)nc1CN1CCC(C(=O)NCCCN2CCN(c3ccc(F)cc3)CC2)CC1	-5.97%
O=C(CSc1nc2c(c(=O)[nH]1)CCC2)Nc1ccccc1C(F)(F)F	4.78%
